Test results published in PubChem BioAssay AID1345083 (National Center for Advancing Translational Sciences (NCATS), 2018).
Hit rate of the full screen: of about 94,000 compounds, about 6,200 (6.6%) were called active. Inconclusive results, whose numbers are uncertain, are shown with a selection of clear calls. Calls follow the shape of the dose curve; as a rule, active = well fitted inhibition curve with a large enough effect; inconclusive = small, poorly fitted or top-dose-only effect; inactive = flat fitted curve, though single readings scatter. Potencies of inconclusive entries are doubtful fits and often do not repeat.

Test: Cytotoxic Profiling in HEK 293 Cell Line of Diverse Libraries Using Quantitative High-Throughput Screening; also: nearly all actives have a fitted effect of over 60% in size
Settings: HEK 293 viability, ATP luminescence (CellTiter-Glo), 48-72 h; series mostly up to 115 µM
In short: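 ATP-coupled CellTiter-Glo luminescence served as viability read-out, recorded 10 min after reagent addition at room temperature. HEK 293 cells, 250 cells/well, had been incubated with pintool-transferred compound for 48 or 72 hr at 37 degree Celsius.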
Potency is read from the fitted curve at half-maximal effect; tags tell the direction and shape of the fitted curve.

Structure (SMILES)	Potency
Clc1cc(NC2CCCC2)n2nccc2n1	inconclusive: 100 µM [inhibitor, partial curve]
COc1ccccc1-c1nnc2ccc(C(=O)NC3CC3)cn12	inactive
O=C1N(c2ccccc2)C[C@H]2CN(Cc3ccnc4ccccc34)CCN12	inconclusive: 100 µM [inhibitor, partial curve]
CC1CCN(C(=O)c2ccc(-c3ccc(N4CCSCC4)nc3)cc2)CC1	active: 20 µM
COC(=O)[C@@H]1Cc2c([nH]c3ccccc23)[C@H]2C[C@@H](NCCN3CCOCC3)C[C@@H](c3ccc(C(F)(F)F)cc3)N21	active: 7.94 µM
Cc1ccc(C2=NC3(CCN(C(=O)c4ccc(C)c(C)c4)CC3)ON2)cc1	inconclusive: 70.8 µM [inhibitor, single point]
COc1ncccc1-c1nccc2c(=O)cc(-c3cccnc3)oc12	inactive
COCC(=O)N1CCC(C(=O)N2CCCC(c3nc4ncccc4[nH]3)C2)CC1 (stereo not drawn)	inactive
CCN1C(=O)C2(CCN(S(=O)(=O)c3ccc(C(F)(F)F)cc3)CC2)c2ccccc21	active: 31.6 µM
COCc1cc(N2CCc3onc(-c4cccc5ccccc45)c3C2)ncn1	active: 35.5 µM
COc1cccc(-c2cn3cc(C(=O)NCCN4CCOCC4)nc3s2)c1	inconclusive: 44.7 µM [inhibitor, partial curve]
O=C1c2cc(N3CCOCC3)nc(-c3cccc(F)c3)c2CN1Cc1ccccc1	inconclusive: 56.2 µM [inhibitor, full curve]
CN(Cc1ccccc1)C(=O)c1cc(-c2ccccc2F)nc2c1cnn2C	inconclusive: 56.2 µM [inhibitor, partial curve, poor fit]
Cc1cnc(CC2CCN(S(=O)(=O)c3ccc(C#N)cc3)C2)n1C1CC1 (stereo not drawn)	inconclusive: 89.1 µM [inhibitor, single point]
COCCCNc1ncnc2c1CN(C1CCCCC1)C(=O)CN2C	inactive
CNC(=O)c1cc[nH]c1C1CCCN(C(=O)c2ccc(C)[nH]c2=O)C1 (stereo not drawn)	inactive
CN(C)c1ccc(CN2CCCC3(CC(Cc4ccccc4)=NO3)C2)cc1 (stereo not drawn)	inconclusive: 56.2 µM [inhibitor, partial curve, poor fit]
CCOCc1nc(C2CCCN2S(=O)(=O)c2cn(C)cn2)no1 (stereo not drawn)	inactive
CCc1cccc(NC(=O)[C@@H]2CN(S(=O)(=O)CC)C[C@H]2c2ccncc2)c1	inactive
O=C(CCC1CCCN(C(=O)c2ccc3c(c2)OCO3)C1)NCc1ccccc1Cl (stereo not drawn)	inconclusive: 89.1 µM [inhibitor, single point]
CC(=O)N[C@@H]1CN(C(=O)c2[nH]c3c(C)ccc(C)c3c2C)C[C@H]1C(C)C	inconclusive: 56.2 µM [inhibitor, partial curve, poor fit]
CCC(CC)Nc1ncnc2c1CN(C1CCC1)C(=O)CN2C	inconclusive: 126 µM [inhibitor, single point]

Structure (SMILES)	Potency
CC(O)CCNS(=O)(=O)c1ccc2c(c1)CN(C(=O)CN1CCOC1=O)CC2 (stereo not drawn)	inactive
COCCCNC(=O)c1cc(-c2cc(Cl)cc(Cl)c2)c2nncn2n1	inactive
Cc1ccc(-c2nnc3ccc(NC4CCCCC4)nn23)nc1	active: 70.8 µM
COCCCNc1nc2c([S+](=O)([O-])c3cc(OC)ccc3OC)nnn2c2ccccc12	inconclusive: 79.4 µM [inhibitor, partial curve, poor fit]
CCC(C)NC(=O)Cc1csc2nc(C)c(-c3cc(C)n(-c4cc(Cl)ccc4C)n3)c(=O)n12 (stereo not drawn)	inconclusive: 89.1 µM [inhibitor, single point]
C[S+](=O)([O-])c1ccc(-c2nc(C(=O)N3CCN(c4ncccn4)CC3)n3ccncc23)cc1	inconclusive: 56.2 µM [inhibitor, partial curve, poor fit]
CCOC(=O)C1=CN(CC(=O)Nc2cccc(Cl)c2C)S(=O)(=O)N=C1C	inconclusive: 89.1 µM [inhibitor, single point]
Cc1ccccc1C(=O)NC1CCCN(c2cc(-c3ccccc3)[nH]n2)C1 (stereo not drawn)	inconclusive: 50.1 µM [inhibitor, partial curve, poor fit]
COCC(=O)N1CC(Oc2ccc(-c3noc(-c4ccncc4)n3)cc2)C1	inconclusive: 63.1 µM [inhibitor, partial curve, poor fit]
Cc1ccc2nc3n(c2c1)[C@@H](CNC1CCCCC1)COC3	inconclusive: 79.4 µM [inhibitor, partial curve, poor fit]
O=C(c1cc(-c2ccccc2)nc2ccccc12)N1CCc2c(nc[nH]c2=O)C1	inconclusive: 17.8 µM [inhibitor, full curve]
Cc1cc(C)n(CCC(=O)N2CCC(Cc3nc(-c4ccccc4)n[nH]3)CC2)n1	inconclusive: 79.4 µM [inhibitor, partial curve, poor fit]
Cc1cc(=O)n(CC(=O)Nc2ccc(F)c(Cl)c2)c(N(C)Cc2ccccc2)n1	inactive
CC1=C[C@@H](CNC(=O)C2CCCCC2)[C@H](C(C)C)C[C@H]1CC(=O)NCc1cccnc1	inconclusive: 50.1 µM [inhibitor, partial curve, poor fit]
COc1ccc(OCC2CN(CCOc3ccccc3)[S+](=O)([O-])c3cccnc3O2)cc1 (stereo not drawn)	inconclusive: 56.2 µM [inhibitor, partial curve, poor fit]
COCCNc1ncnc2c1CN(C1CCNCC1)C(=O)CN2C	inactive
COc1ccc(-c2[nH]nc3ncc(-c4ccc([S+](C)(=O)[O-])cc4)nc23)c(C)c1	active: 56.2 µM
CC(C)C(=O)NC1CCN(C(=O)c2ccc(-c3cccs3)cc2)CC1	active: 70.8 µM
COc1cc2c(cc1OC)C(CNC(=O)c1ccc(C)cc1)N(C(=O)Nc1ccccc1F)CC2 (stereo not drawn)	inconclusive: 89.1 µM [inhibitor, single point]
OC1(c2csc(CN3CCOCC3)n2)CCN(Cc2ccccc2F)CC1	inactive
Clc1ccc(-c2cnc([C@@H]3COCCN3Cc3ccccc3)[nH]2)cc1	active: 89.1 µM
